In the experiment the test system is MDA-MB-435 melanoma. Nature of the experiment: NCI-60 one-dose screen, 48 h (100 = growth as untreated, 0 = no growth, -100 = all killed).

Where a structure was tested more than once in an assay, its records may differ in their call.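 Values shown are percent growth following 48 h exposure of cells in 96-well plates to a single concentration of compound; below 10 was considered active.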 A number of entries come with more than one value. The list is limited to them. There may be further records. The screen tested this drug many times, at its own concentration, as given; one value stands for one run. Signs of the kind (2×) say how often a value occurs here.

In the case of `COc1cccc2c1C(=O)c1c(O)c3c(c(O)c1C2=O)C[C@@](O)(C(=O)CO)C[C@@H]3OC1CC(N)C(O)C(C)O1` (stereo not given in full), the growth entry by setting is: (0.25 µM, runs of 2013) “inactive: 52, 51.3 (2×), 53.7, 50.3, 57.4, 59.7, 68.9, 67.7 (2×), 71.7 (2×), 62.6, 68.1, 61, 58.5, 65.8, 71.3 (2×), 65.7, 70.5 (3×), 68.6, 65.6, 69.9, 69, 74.1 (2×), 66.7, 69.4 (2×), 75.9, 73, 70.6 (2×), 70.8, 73.5 (2×), 71.4, 70.3 (2×), 73.9 (2×), 74.7, 77.1, 73.4, 72.2, 73.1, 75, 68 (2×), 75.2, 67.3, 68.5, 53, 59.8 (2×), 62.8, 52.3, 62, 62.1, 67.1, 53.9, 54.7, 56, 59.9%”; (0.25 µM, runs of 2014) “inactive: 58.7, 53.1, 60.9 (2×), 61.1, 59.8, 51.7, 56.5, 58.5, 56.6, 59.9 (3×), 46.4, 60.8, 55.1 (2×), 58.3 (2×), 68.6, 59.1, 68.7, 56, 69.1, 65.8, 66.5, 53.5, 55.9 (2×), 62.6, 61.2, 62.8 (2×), 67.2, 65.3, 66.7, 70.1, 62.9, 62.2, 64.2, 61.6, 72.2, 68, 62.3, 61.3, 63.3, 61.8, 54, 62.1, 57.8, 67.5, 54.2 (2×), 57.5, 68.9 (2×), 61, 56.3, 65, 63.4, 58.4, 69.6, 62.5, 63.5, 68.5, 63.7%”; (0.25 µM, runs of 2015) “inactive: 72.1, 64.2, 64.4 (2×), 58.6, 63.5 (2×), 67.1 (2×), 75.2, 63.4, 58.9 (3×), 68.7 (3×), 69.2 (2×), 63.1 (2×), 71.3, 59.6, 59.5, 66.9, 54.5, 62.2, 67.6, 61.8, 59.3 (2×), 56.3, 60.3, 64.6, 62.5, 64.9, 61.3 (2×), 63.2, 48.8, 67.7 (2×), 65.7, 61.4, 66.5 (2×), 48, 77.2, 63.7, 55.9, 46.6, 56.5, 79.7, 58.5, 62.1, 63.3, 60.9, 68.6, 71.4, 77.3, 69.1, 74.5, 71, 76.1, 76.4, 62.8, 70.1 (2×), 70.5, 69, 75.1, 75.8%”; (0.25 µM, runs of 2016) “inactive: 68.6 (2×), 63.5, 66.6 (2×), 66.9 (3×), 69.9 (3×), 67.3, 70.7 (2×), 59.1 (2×), 59.8, 56.5 (3×), 51.5 (2×), 61 (2×), 56.6, 54.1, 59.3, 66.5 (2×), 52.7, 57, 54.7, 61.5, 61.3, 64.4, 60.9 (2×), 64.6, 71.4, 67.6, 74.6, 74.4 (2×), 71.5, 77.1 (2×), 68.7, 62.2, 63.7, 61.6, 70.1 (2×), 69.6, 65.4, 71, 68.2, 74, 71.7, 75.9, 68.1, 72.6, 77.5, 76.5, 77.3, 71.8, 74.2, 80.4, 75.8, 68.9, 67.2, 68.4, 72.5, 69.4%”; (0.25 µM, runs of 2017) “inactive: 68.5 (2×), 66.3, 69.4, 65.6, 79.3, 78.7, 59.8 (2×), 68, 61.7 (2×), 57.9, 63.4, 62.5 (2×), 61.3 (3×), 55, 55.1, 59.5, 56.2, 54.8 (2×), 59.7, 58.8 (2×), 56.9, 62.2, 61 (2×), 60.7, 62.6 (2×), 56.3, 61.6, 63.2 (2×), 60.3 (3×), 56.4, 61.5, 65.4, 70.2, 58.7 (2×), 62.9, 62.3, 65.7, 64.6, 59.4 (2×), 68.9, 68.1, 62.8, 59.1, 68.2, 57.7, 56.6, 64.9, 59, 69.7, 69, 70.7, 69.1, 61.8, 66.6%”; (0.25 µM, runs of 2018) “inactive: 64.9, 68.2 (2×), 65.2 (2×), 67.5, 63.3 (2×), 70.9, 65.1, 61.5, 59.3, 65.4 (3×), 71.5, 73.3, 72.5, 80.6, 73.4, 70.3, 68.4 (2×), 67.2, 62.2 (2×), 64.6, 65.8 (2×), 69.2, 63.1, 63.5, 76, 70.8, 62.3, 69.6, 78, 61.4, 57.4, 63.2, 68.7, 73, 73.5, 62.7, 74.9, 45.5, 55.9%”. The growth entry is “inactive: 51.8, 47.8 (2×), 52.9 (2×), 42.8, 54.1, 54 (2×), 52.2, 53.7, 55.1, 59.3, 56.5, 61, 60.6, 60.9, 55.3, 60.3, 50.9, 63.1, 68.3, 51.1, 67.6 (2×), 57.5, 56.8, 63.7, 59.7, 50.6, 50.8, 72.5 (2×), 71.2, 85.8, 70.9, 68.2, 62.8, 77.9, 76.7, 76.8, 66.9, 74.5, 61.1%” (0.25 µM, runs of 2019); “inactive: 58.4, 81.1, 88.9, 89.8, 65.5, 61.9, 59.1, 64.9, 63.5, 75.1 (2×), 74.9, 65, 64.6, 68.7, 72.1, 75.2, 70.7, 71.5, 78.7, 66.6, 78, 81.4, 66.7%” (0.25 µM, runs of 2020); “inactive: 71.5, 73, 73.5, 72.1, 66.9, 65 (2×), 56.9, 56.1, 62.8, 71.8, 61.5, 59.8, 66.6, 70.8, 59, 62.9, 60.8 (2×), 64.9 (2×), 62.2, 59.5 (2×), 57, 57.2, 59.9, 55.9, 61.2, 60.6, 53.4, 58.4 (2×), 58.5, 71.4, 65.1, 67.7, 55.2, 54.5, 47, 38.8, 57.5, 76.1, 65.5, 65.6%” (0.25 µM, runs of 2021); “inactive: 18, 18.7, 54.7, 57.4, 10.4, 61.7, 36.4, 52.4, 58.8, 51.6, 57.9, 72.9, 65.3, 54.8, 57.6, 46.1, 84.2, 83.7 (2×), 59.8, 85.2, 88.9, 67.5, 59.6, 73%” (0.25 µM, runs of 2022); “active: -95.9 (2×), -98.6, -59.6, -100 (4×), -95.7, -98.8, -86.8, -88, -96, -98.2, -98.1, -92.4, -84 (2×), -66.6, -74.8, -54.4, -75.9 (2×), -95.2, -90.9, -94.5, -98, -82.3, -60.6, -94.3 (2×), -63.2, -96.2, -73.6, -91.3, -98.9, -82.9, -99.4, -99.1, -93.7% and inactive: 100%” (25 µM, runs of 1993); “active: -100 (6×), -99.5 (2×), -97.1, -94.3, -89.6, -99, -95.4, -76.9, -69, -96, -99.9, -89.1 (2×), -21.8, -99.6 (2×), -84.4, -70.9, -59.2, -94.9, -97.9, -97% and inactive: 66.7%” (25 µM, runs of 1994). Further, the growth result is, setting by setting: (25 µM, runs of 1995) “active: -99.2 (2×), -97.9 (2×), -98, -87.2, -100 (8×), -93.2, -74.4, -96.7, -99.7 (2×), -79.7, -94, -98.7, -98.3, -99.8, -69.3, -91.5, -62.7, -84.2 (2×), -92.2, -66.8, -97.3, -99.3 (2×), -56.8, -93.5, -96, -93.4, -96.1, -77.8, -87.5%”; (25 µM, runs of 1996) “active: -98.5, -68.4, -98.3, -77.9, -73.1, -96.3, -94.7 (2×), -81.6, -81.5 (2×), -78.1, -77.8, -90.6, -87.9, -100 (6×), -75.9, -60.4, -68, -96.4, -71.5, -91.6, -95, -99.2, -58.8, -89.5, -74.4, -62.7, -75.5, -88.5, -99.6, -57.8, -78.7, -68.7, -67.3, -79.3, -98.8, -96.1, -88.3, -70.1, -99.8, -86.5, -99.3, -78.5, -60.5, -53.4, -69.7, -86, -84.3, -71.9% and inactive: 91.5%, 52.1%, 100%”; (25 µM, runs of 1997) “active: -94.8, -26, -89, -80.3, -74.6, -74.9, -44.8, -100 (4×), -85.4, -82.4, -98.1, -94.6, -76.6, -99.6, -89.4, -66.9, -97.6, -94.7, -69.9, -70.6, -98.4, -85.8, -58.9, -79, -99.1, -87.5, -82.2 (2×), -59.8, -75.3, -70.4, -94.9, -67, -51.4, -92.4, -67.7, -81.6, -89.1, -98%”.

These data come from PubChem BioAssay (NCI).
